PubChem BioAssay (NCATS)
Inconclusive means that the source gave no clear call. Such entries were picked first, then a sample of the others. For part of these data: Potencies of inconclusive entries are doubtful fits and often do not repeat. For part of these data: “Side channel” marks fits to a control or component signal instead of the main read-out. Activity calls are given as the source filed them. Unless noted, calls follow the shape of the dose curve; as a rule, active = well fitted curve in either direction with a large enough effect (not every such curve was filed as active); inconclusive = small, poorly fitted or top-dose-only effect, or another doubt; inactive = flat fitted curve, though single readings scatter.

Assays:
[1] = NFAT Signaling Pathway (AID 444); details: Jurkat NFAT-bla M1, carbachol, beta-lactamase ratio, 5 h; at 17.2 µM (top of the series) unless noted;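 also: carbachol stimulus at about its EC50 of 1 µM final; % is scaled to controls: 0 for no effect and ±100 for the full control effect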
Outline: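 Read-out: CCF4 FRET ratio (460 nm/530 nm) after 1 h RT dye loading, used for %activity and AC50 from titration series. Cells: Jurkat NFAT-β-lactamase/M1 line, treated with compound plus 1 uM carbachol for 5 h, 37 °C.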

[2] = qHTS Assay for Identification of Small Molecule Agonists for Hypoxia Response Element Signaling Pathway (AID 914; active = well fitted activation curve with a large enough effect in the signal ratio, with a control signal flat, not every such curve was filed as active; inconclusive = small, poorly fitted or top-dose-only effect, or effect the other way, or a change in a side signal; the % refers to the signal ratio; also: potency is read from the fitted curve at half-maximal effect; as to activation: top concentration of the series differs between compounds; % of control where 0% means no effect); details: ME-180 (cervical carcinoma) HRE-bla reporter, beta-lactamase ratio, CoCl2, 17 h; activation: hits give high values
Outline: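 Read-out: CCF4 FRET ratio of 460nm to 530nm emission (excitation 405nm) after 2.5 hours at room temperature, taken from HRE-bla ME-180 cells that had been exposed to compound and EC50 CoCl2 for 17 hours.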
Tags tell the direction and shape of the fitted curve or compound fluorescence and quenching.

Row | Structure (SMILES) | activity change, negative = inhibition [1] | activation [2] | Potency [2]
1 | COc1cc(Cl)c(CC(=O)c2c[nH]c3ccccc23)cc1OC | inactive: 26.5% [at 7.69 µM] | inconclusive: -26.2% | 
2 | COc1ccc(Oc2ncc3nc(C)c(=O)n(C4CC4)c3n2)cc1 | inactive: -5.38% [at 7.69 µM] | inactive: -6.35% | 
3 | CCCSc1nc(C)c(CC(=O)O)c(=O)[nH]1 | inactive: 13% | inactive: 11% | 
4 | Cn1c(=O)c2c(nc(NCc3ccco3)n2Cc2ccc(Cl)cc2Cl)n(C)c1=O | inconclusive: -32.6% [inhibitor] |  | inconclusive: 12.6 µM [inhibitor, partial curve, poor fit]
5 | c1ccc(C[n+]2cccc(-c3cc4ccccc4[nH]3)c2)cc1 | inconclusive: -31.9% [inhibitor] [at 7.69 µM] | inconclusive: -23.5% | 
6 | CC(C)C(=O)N1CCN(c2nc(-c3ccccc3)c3c(c2C#N)CCCC3)CC1 | inconclusive: -32.8% [inhibitor] |  | inconclusive: 12.6 µM [inhibitor, single point]
7 | CCCN(CCC)c1nc2ccccc2nc1C(C#N)C(=O)OC(C)COC (stereo not drawn) | inconclusive: -35.1% [inhibitor] | inactive: -6.34% | 
8 | CC(C)C1Cc2c(C#N)c(N)n(C)c(=S)c2CO1 (stereo not drawn) | inactive: -23.6% | inactive: -0.94% | 
9 | CC1CCN(c2[nH]c(=S)c(C#N)c3c2CCCC3)CC1 | inconclusive: -72.8% [inhibitor] |  | inconclusive: 10 µM [inhibitor, partial curve, poor fit]
10 | O=C(O)c1ccnc(C(=O)O)c1 | inactive: 0.361% | inconclusive: 24.8% | 
11 | C[N+](C)(N)CCC[N+](C)(C)N | inactive: 24.5% [at 7.69 µM] | inconclusive: 1.96% | 
12 | O=C(Nc1cccc2cccnc12)[C@@H]1[C@@H](C(=O)O)[C@H]2CC[C@@H]1O2 | inconclusive: 11.3% [activator] [at 7.69 µM] |  | inconclusive: 3.98 µM [inhibitor, single point]
13 | Oc1ccc2ccccc2c1/C=C\c1ccc2c(Br)cc(Br)c(O)c2n1 | inconclusive: -46% [inhibitor] [at 7.69 µM] | inconclusive: -9.9% | 
14 | CCC(C)Nc1nc(-c2cccc(OC)c2O)nc2ccccc12 (stereo not drawn) | inconclusive: -70.9% [inhibitor] |  | inconclusive: 1.26 µM [inhibitor, full curve]
15 | CCOC(=O)CCCCC(=O)NC(CO)C(=O)NC (stereo not drawn) | inactive: 6.3% | inconclusive: 29.1% | 
16 | CC(=O)N/C(=N/c1nc(C)cc(C)n1)Nc1ccc(NC(C)=O)cc1 | inactive: -3.91% |  | inconclusive: 12.6 µM [inhibitor, single point]
17 | COc1ccccc1NC(=O)Nc1nnc(C(C)C)s1 | inactive: 20.9% | inactive: 10.4% | 
18 | CCCCC[C@H](O)/C=C/C1=C(CCCCCCC(=O)O)C(=O)CC1 | inconclusive: -43.2% [inhibitor] |  | inconclusive: 0.1 µM [inhibitor, full curve]
19 | COC(=O)c1c(NC(=O)c2nn(C)cc2Cl)sc2c1CCCC2 | inconclusive: -73.8% [inhibitor] |  | inconclusive: 10 µM [activator, partial curve]
20 | CCOC(=O)CCC(=O)O[C@H]1[C@H](O[C@@H]2[C@@H](C)[C@H](O[C@H]3C[C@@](C)(OC)[C@@H](O)[C@H](C)O3)[C@@H](C)C(=O)O[C@H](CC)[C@@](C)(O)[C@H](O)[C@@H](C)C(=O)[C@H](C)C[C@@]2(C)O)O[C@H](C)C[C@@H]1N(C)C | inconclusive: -31.8% [inhibitor] | inconclusive: -4% | 
21 | CC1=CC(=O)CC(C)(C)[C@]1(O)/C=C\C(C)=C\C(=O)O | inactive: -29.1% [at 7.69 µM] | inconclusive: -8.65% | 
22 | COc1ccc(-c2oc3ncn4nc(Cc5ccccc5)nc4c3c2-c2ccc(OC)cc2)cc1 | inactive: -13% |  | inconclusive: 3.16 µM [cytotoxic, side channel, full curve]
23 | CCOCCSc1nc2c(c(=O)[nH]c(=O)n2C)n1CCCc1ccccc1 | inconclusive: 10.6% [inhibitor] | inactive: 6% | 
24 | CC1(C)Cc2c(c(-c3ccco3)[nH]c(=O)c2C#N)CS1 | inconclusive: -35.9% [inhibitor] |  | inconclusive: 7.94 µM [inhibitor, partial curve]
